Measured values reported in paper PMC4336329 (PLoS ONE, 2015).
Among all 310,000 compounds or so, about 2,200 (0.71%) showed an effect of 50% or more. The effect is printed as a negative number. The list shows a part of the results.

These molecules were tested against human ether-à-go-go-related gene (hERG) potassium channel (human, UniProt Q12809) (assay: primary screen, population patch clamp on CHO cells stably expressing hERG).
Chain of human ether-à-go-go-related gene (hERG) potassium channel (Q12809 whole entry, looked up): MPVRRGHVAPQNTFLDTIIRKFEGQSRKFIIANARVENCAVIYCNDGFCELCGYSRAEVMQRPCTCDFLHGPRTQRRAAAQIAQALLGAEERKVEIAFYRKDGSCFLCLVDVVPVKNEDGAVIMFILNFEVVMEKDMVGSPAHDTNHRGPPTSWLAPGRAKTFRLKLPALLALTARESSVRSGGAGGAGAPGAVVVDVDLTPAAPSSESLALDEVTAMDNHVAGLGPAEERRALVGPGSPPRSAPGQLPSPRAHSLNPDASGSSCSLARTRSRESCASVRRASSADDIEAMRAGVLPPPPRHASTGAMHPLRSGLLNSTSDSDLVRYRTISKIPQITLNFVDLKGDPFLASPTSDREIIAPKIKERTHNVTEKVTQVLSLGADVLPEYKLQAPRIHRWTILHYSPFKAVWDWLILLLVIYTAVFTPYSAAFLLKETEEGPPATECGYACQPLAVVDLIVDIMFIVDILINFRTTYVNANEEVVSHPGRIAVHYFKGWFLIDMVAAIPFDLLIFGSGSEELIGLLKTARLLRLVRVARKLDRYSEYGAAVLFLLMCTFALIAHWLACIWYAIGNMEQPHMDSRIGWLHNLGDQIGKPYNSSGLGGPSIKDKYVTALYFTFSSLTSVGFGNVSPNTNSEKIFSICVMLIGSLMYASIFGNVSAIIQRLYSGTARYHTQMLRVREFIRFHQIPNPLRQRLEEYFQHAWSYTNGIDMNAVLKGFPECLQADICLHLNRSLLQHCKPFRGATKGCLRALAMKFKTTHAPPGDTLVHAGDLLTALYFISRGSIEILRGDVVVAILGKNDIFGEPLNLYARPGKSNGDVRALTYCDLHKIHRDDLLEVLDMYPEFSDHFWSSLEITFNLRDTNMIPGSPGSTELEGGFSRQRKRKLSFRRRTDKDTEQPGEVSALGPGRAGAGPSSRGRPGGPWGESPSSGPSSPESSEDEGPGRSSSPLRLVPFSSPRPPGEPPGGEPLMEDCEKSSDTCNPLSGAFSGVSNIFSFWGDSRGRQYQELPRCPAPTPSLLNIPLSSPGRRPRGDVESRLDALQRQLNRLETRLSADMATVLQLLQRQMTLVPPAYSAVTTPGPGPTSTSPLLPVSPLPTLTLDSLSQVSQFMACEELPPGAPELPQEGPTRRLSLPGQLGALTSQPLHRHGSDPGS

| Structure (SMILES) | hERG current change (%, negative = inhibition) at 1uM [%] |
| --- | --- |
| CC(=O)NC(=S)Nc1ccc2oc(-c3cc(F)c(F)cc3Cl)nc2c1 | 10.6 |
| C/C=C/c1ccc(Oc2nnnn2-c2ccc(C(N)=O)cc2)c(OC)c1 | 14.2 |
| O=C(NN=C1CCCC1)c1ccccc1O | 16.1 |
| Cc1cc(C)c(C#N)c(Nc2ccccc2Cl)n1 | 18.2 |
| O=C(NCC(c1cccnc1)N1CCOCC1)c1ccco1 (centres unmarked) | 15 |
| O=C(Cn1nc(-c2cccc(Cl)c2)ccc1=O)Nc1cccnc1 | 8.72 |
| CCOc1ccc(C(=O)COc2ccc(NC(C)=O)cc2)cc1 | 18.2 |
| CCOC(=O)c1c(C)[nH]c(C)c1C(=O)COC(=O)c1ccccc1O | 1.53 |
| O=C(CCn1c(=S)oc2ccccc21)NCCC1=CCCCC1 | 7.57 |
| O=S(=O)(NCc1ccccc1)c1ccc(S(=O)(=O)N(Cc2ccccn2)Cc2ccco2)cc1 | 23.9 |
| CCOC(=O)Cc1csc(NS(=O)(=O)c2ccc(Br)cc2)n1 | 8.87 |
| Cc1cc(C)c2c(-n3cccc3)c(C(=O)NNS(=O)(=O)c3ccccc3)sc2n1 | 11.1 |
| COCCCNC(=S)NNC(=S)Nc1ccc(OC)cc1 | 12.3 |
| CCOc1ccc(NS(=O)(=O)c2ccc3[nH]cc(C(=O)NCCOC)c(=O)c3c2)cc1 | -0.613 |
| O=C(CCn1cccn1)Nc1ccc(-c2ccno2)cc1 | 10.1 |
| COc1ccc(OC)c(/C=N/Nc2nncn2/N=C/c2cc(OC)ccc2OC)c1 | 8.75 |
| C=CCc1c(C)nc(C)nc1N/N=C/c1ccccc1 | 0.814 |
| COc1ccccc1Cn1c(-c2ccco2)nc2nc3ccccc3nc21 | -3.42 |
| Cc1ccc(S(=O)(=O)N2CCN(C(=O)Cn3c(=O)cnc4ccccc43)CC2)cc1 | 1.04 |
| COc1ccc2nc(C3CCCCC3)nc(C3CCCCC3)c2c1 | 15.2 |
| CCCn1nc(NS(=O)(=O)c2ccc(F)cc2)c2cc3ccccc3nc21 | 12.1 |
| CCC1Sc2ccccc2N(CC(=O)NC2CC2)C1=O (centres unmarked) | 12.3 |
| O=C(Cn1cc2c(n1)CCCCC2)N1CCc2ccccc2C1 | 0.67 |

| Structure (SMILES) | hERG current change (%, negative = inhibition) at 1uM [%] |
| --- | --- |
| Cc1sc2ncnc(N3CCC(C(=O)N(CC(C)C)c4nc5ccccc5s4)CC3)c2c1C | 3.62 |
| CCOC(=O)c1ccc(NC2c3ccccc3C(=O)N2c2ccc(C)cn2)cc1 (centres unmarked) | 11.3 |
| CC(=O)Nc1ccc(S(=O)(=O)NCCSCc2ccc(Cl)cc2Cl)cc1 | 12.4 |
| O=C(O)CCCNc1n[nH]c(=O)[nH]c1=O | 14.1 |
| CC(C)(C)NC(=O)C(c1cccs1)N(Cc1ccco1)C(=O)c1csnn1 (centres unmarked) | 13.1 |
| Brc1ccc(-c2csc(N3CCOCC3)n2)cc1 | 13.7 |
| O=c1c2cc(Br)ccc2[nH]c(=S)n1-c1ccccc1 | 10.2 |
| Cc1cc(CN(C)C(=O)c2cc(COc3ccc(C)c(C)c3)on2)n[nH]1 | 7.9 |
| CCOP(=O)(C(NC(=O)c1ccccc1Cl)=C(Cl)Cl)c1ccccc1 (centres unmarked) | 9.1 |
| COc1ccc(S(=O)(=O)N[C@@H](Cc2ccc(Cl)cc2)C(=O)N2CC[C@@]3(O)CCCC[C@H]3C2)cc1 | 4.25 |
| N/C(=N\OC(=O)c1ccccc1)c1ccncc1 | 9.66 |
| COC(=O)C1=CNC=C(C(=O)OC)C1c1ccccc1Cl | 14.1 |
| CC1=CCC[C@@H]2[C@@](C)(CC/C(C)=C/C(=O)O)[C@H](C)CC[C@@]12C | 11.2 |
| CCCCn1c(-c2cccc(Br)c2)nc2cc3[nH]c(=O)c(C(C)C)nc3cc21 | 9.92 |
| CCOC(=O)N1CCN(c2c(NCc3ccc(N(C)C)cc3)c(=O)c2=O)CC1 | 12.8 |
| CCOC(=O)c1nnc(-c2ccccc2)nc1N1CCSCC1 | 1.52 |
| Cc1ccc(Cl)cc1NS(=O)(=O)c1ccc2oc(=O)ccc2c1 | -0.581 |
| CC(C)CNS(=O)(=O)c1ccc(CCC(=O)N2CCCC2)cc1 | 13.4 |
| Cc1nnc(N/N=C/c2c(O)n(-c3cccc(C(F)(F)F)c3)c(=O)c3ccccc23)[nH]c1=O | 6.94 |
| Cc1nc(SCC(=O)N(C)C2CCS(=O)(=O)C2)c(C#N)c(C)c1C (centres unmarked) | -6.6 |
| O=C(O)CSCC(=O)NCc1ccccc1 | 13 |
| CC(C)c1ccc(NC(=O)CCS(=O)(=O)c2cccc3nonc23)cc1 | 8.9 |
| COc1cc(CC(NC(C)=O)C(=O)NC2CCN(C(=O)Nc3ccccc3C)CC2)cc(OC)c1 (centres unmarked) | 9.35 |

| Structure (SMILES) | hERG current change (%, negative = inhibition) at 1uM [%] |
| --- | --- |
| O=C(c1ccc(Cl)cc1)N1CCN(c2ncccn2)CC1 | 7.45 |
| Cc1ccc(S(=O)(=O)N2CCCCC2)cc1NC(=O)COc1ccccc1F | 5.06 |
| CCOC(=O)c1ccc(NC(=O)c2nc[nH]c2C(=O)NCC(=O)OC(C)(C)C)cc1 | 16.4 |
| CCCSc1nnc(NC(=O)Nc2ccccc2)s1 | 2.06 |
| COc1ccc(-n2c(C)nc3cc(C(=O)N4CCC5(CC4)OCCO5)ccc32)cc1 | -0.716 |
| COc1cc(-c2noc(C)c2/C=C/c2ccc(N)cc2)cc(OC)c1OC | 1.78 |
| N#CNC1=NCN(Cc2ccccc2)CN1 | 5.29 |
| COc1ccc(N2Nc3n[nH]c(N)c3N2)cc1 | -1.3 |
| CCCC1OC23CCCCC2C(C#N)(C(=N)O3)C1(C#N)C#N (centres unmarked) | 12.6 |
| CC(=O)c1oc2ccccc2c1N | 16.7 |
| CC(Oc1ccccc1Cl)C(=O)/C=C/N(C)C (centres unmarked) | 19.3 |
| CCc1nnc(NC(=O)c2ccc(-c3ccccc3F)o2)s1 | 11.7 |
| O=C(CN1CCN(Cc2ccccc2F)C1=O)NC1CCCC1 | 6.39 |
| CCn1c(=S)sc2c(=O)n(CC(=O)Nc3ccccc3OC)c(C)nc21 | 7.25 |
| COc1ccc(/C=C2\C(=O)N(Cc3ccc(F)cc3)CC(=O)N2Cc2ccccc2)cc1 | 7.5 |
| CC(NC(=O)Nc1ccccc1)C(c1cccs1)N1CCN(c2ccccc2)CC1 (centres unmarked) | 13.2 |
| Cc1ccc(O)c(NC(=O)c2noc3c2CCc2ccccc2-3)c1 | 9.72 |
| CC(C)(c1ccccc1)c1ccc(OCC2CO2)cc1 (centres unmarked) | 17.8 |
| O=C1/C(=C/c2cc3c(cc2Cl)OCO3)N2CCC1CC2 | 14.8 |
| S=C(NCCN1CCOCC1)Nc1cccc(Cl)c1 | 4.81 |
| O=C(Nn1c(SCc2cccc([N+](=O)[O-])c2)nc2ccccc2c1=O)c1ccccc1 | 7.12 |
| COCCNC(=O)C(c1ccc(Cl)cc1)N(CCOC)C(=O)CCC(=O)Nc1ccccn1 (centres unmarked) | 7.5 |
| O=C(C1=C[C@@H](c2coc3ccccc3c2=O)C[C@@H](OCc2ccc(CO)cc2)O1)N1CCN(Cc2ccccc2)CC1 | -0.45 |

| Structure (SMILES) | hERG current change (%, negative = inhibition) at 1uM [%] |
| --- | --- |
| Cc1ccc(Cn2nc(C)c(/C=N/NC(=O)c3cccnc3)c2C)cc1 | 5.98 |
| Cc1ncc(CN2CCCC(CCC(=O)NCc3ccccc3F)C2)s1 (centres unmarked) | 20.6 |
| COc1ccc(CNC(=S)Nc2cccc(C)c2C)cc1 | -7.25 |
| CC1CCN(S(=O)(=O)c2cc(F)ccc2CN2C(=O)c3cccnc3C2=O)CC1 | 0.0794 |
| Cn1c(=O)c(S(=O)C2CCCCC2)c(O)c2ccccc21 (centres unmarked) | 11.3 |
| COc1ccc(/C=C/C(=O)Oc2ccc(/C=N/NC(=O)c3ccncc3)cc2)cc1 | -2.79 |
| O=C1OC(N2CCN(Cc3ccccc3)CC2)c2ccccc21 (centres unmarked) | 13.9 |
| Fc1cccc(CN2CCN(c3ncccn3)CC2)c1 | -3.94 |
| COc1ccccc1N1CCN(C(=O)c2ccc(Cl)c(S(=O)(=O)NCc3ccco3)c2)CC1 | 13.5 |
| COC(=O)C1=C(c2ccc(F)cc2F)C[C@@H]2CC[C@H]1N2C | 10.1 |
| CC1OC(OCC2OC(Oc3c(-c4ccc(O)cc4)oc4cc(O)cc(O)c4c3=O)C(O)C(O)C2O)C(O)C(O)C1O (centres unmarked) | 11.7 |
| N#C/C(=C\c1ccc(OCCN2CCOCC2)cc1)C(=O)Nc1ccccc1 | 8.83 |
| COc1cc(C2C(C(C)=O)=C(O)C(=O)N2CCN2CCOCC2)ccc1O (centres unmarked) | 7 |
| Cc1ccc(S(=O)(=O)c2nnn3c2nc(N2CCC(C(N)=O)CC2)c2ccccc23)cc1 | 9.94 |
| CN(C)CCN1C(=O)c2ccccc2C1=O | 10 |
| COc1cccc(NC(=O)CN(C)C(=O)CCCNC(=O)c2ccc(Cl)cc2)c1 | -5.92 |
| CC[C@@H](C)C(N)c1cn([C@@H](CCC(=O)O)C(=O)N2CCNCC2)nn1.Cl (some centres unmarked) | 10.2 |
| COc1ccc(C(=O)NC2=C(C#N)CCC2)cc1OC | 5.99 |
| O=C(NNS(=O)(=O)c1ccccc1F)c1cccc(S(=O)(=O)N2CCOCC2)c1 | 5.57 |
| COc1ccc(N2CCN(C(=O)c3ccc(CNc4c(N5CCOCC5)c(=O)c4=O)cc3)CC2)cc1 | 9.32 |
